Measurements taken from a collection of fitness landscapes (doi:10.1016/j.celrep.2020.107928).
Over roughly 81,000 sequences, “one-hybrid fitness for binding NBS DNA” has its median near -0.1; the highest 2% begin near 0.36. This is one part of the list.

B1: Caulobacter ParB omega fusion; a variant is named by its letters at X, in order, B8GW30 (parent)
chain: MESVVVGEPGMSEGRRGLGRGLSALLGEVDAAPAQAPGEQLGGSREAPIEILQRNPDQPRRTFREEDLEDLSNSIREKGVLQPILVRPSPDTAGEYQIVAGERAWRAAQRAGLKTVPIMVRELDDLAVLEIGIIENVQRADLNVLEEALSYKVLMEKFERTQENIAQTIGKSXSHVANXMRLLXLPDEVQSYLVSGELTAXHARAIAAAADPVALAKQIIEGGLSVRETEALARKAPNLSAGKSKGGRPPRVKDTDTQALESDLSSVLGLDVSIDHRGSTGTLTITYATLEQLDDLCNRLTRGI

Variants of: B1
Experiment: one-hybrid fitness for binding NBS DNA (the Noc-binding site; scaled: cognate 1, non-cognate 0); higher = stronger binding
Conditions: with NBS DNA site
Method in brief: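 Fitness here means the log change in variant-to-wild-type read ratio between plasmids sequenced before and after selection. That scale was set so cognate equals 1 and non-cognate equals 0. The selection was a bacterial one-hybrid screen of Caulobacter ParB libraries, four specificity codons randomised, in E. coli USO carrying a HIS3 reporter with the site 19 bp from the promoter, grown 48 hours at 37°C on M9-minus-histidine with 0.1 mM IPTG and 5 mM 3-AT.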

Variant	one-hybrid fitness for binding NBS DNA
DPCY	≤ 0.2
WWNG	≤ 0.2
RQGG	≤ 0.2
MSFG	≤ 0.2
GLDR	≤ 0.2
WALL	≤ 0.2
GDPC	≤ 0.2
QRIQ	≤ 0.2
CWKS	≤ 0.2
CDFS	≤ 0.2
GQSS	≤ 0.2
SKTL	≤ 0.2
HWSS	≤ 0.2
MMPR	≤ 0.2
IRSC	≤ 0.2
QAKI	0.299
RAMT	0.303
PPMC	≤ 0.2
YCDF	≤ 0.2
QTCM	≤ 0.2
YWKG	≤ 0.2
TYSH	≤ 0.2
AHGI	≤ 0.2
RLNQ	≤ 0.2

Variant	one-hybrid fitness for binding NBS DNA
IRYV	≤ 0.2
RIYK	≤ 0.2
RWRF	≤ 0.2
WPPT	≤ 0.2
YRKG	≤ 0.2
WAAL	≤ 0.2
HPRD	≤ 0.2
SSMM	≤ 0.2
ALTI	≤ 0.2
RRQI	≤ 0.2
PPVC	≤ 0.2
TYNY	≤ 0.2
TPHV	≤ 0.2
TRAH	≤ 0.2
IDNI	0.591
AFYC	≤ 0.2
YTQT	≤ 0.2
EVHT	≤ 0.2
DQES	≤ 0.2
HTQA	≤ 0.2
TVRH	≤ 0.2
IQNY	≤ 0.2
NNTV	≤ 0.2
LVPN	≤ 0.2

Variant	one-hybrid fitness for binding NBS DNA
QAKR	0.982
WTQA	≤ 0.2
QWHW	≤ 0.2
PTRW	≤ 0.2
QTCE	≤ 0.2
AAMR	≤ 0.2
LLDL	≤ 0.2
TEHW	≤ 0.2
HYDE	≤ 0.2
CDVS	≤ 0.2
YRRS	≤ 0.2
PLYI	≤ 0.2
FTRF	≤ 0.2
PILK	≤ 0.2
LAEG	≤ 0.2
SIHF	≤ 0.2
GSFE	≤ 0.2
VTAM	≤ 0.2
IISG	≤ 0.2
TCMS	≤ 0.2
YPPF	≤ 0.2
DALF	≤ 0.2
ELAM	≤ 0.2
RAWQ	≤ 0.2

Variant	one-hybrid fitness for binding NBS DNA
LMYI	≤ 0.2
SKSE	≤ 0.2
YWNN	≤ 0.2
VFNL	≤ 0.2
HRHA	≤ 0.2
WNAK	≤ 0.2
DVTV	≤ 0.2
LNVG	≤ 0.2
HWTL	≤ 0.2
HHRW	≤ 0.2
CTMT	≤ 0.2
VLRT	≤ 0.2
HHWV	≤ 0.2
PIKN	≤ 0.2
RMAY	≤ 0.2
GSRP	≤ 0.2
PCYT	≤ 0.2
NSPC	≤ 0.2
NQRK	≤ 0.2
QCPK	≤ 0.2
NKMS	≤ 0.2
DSNY	≤ 0.2
QMFG	≤ 0.2
QLTL	≤ 0.2

Variant	one-hybrid fitness for binding NBS DNA
IWTR	≤ 0.2
ACNH	≤ 0.2
QYFF	≤ 0.2
SGRR	≤ 0.2
THTK	≤ 0.2
PWFG	≤ 0.2
IAIR	≤ 0.2
PLGG	≤ 0.2
LPDW	≤ 0.2
IPTP	≤ 0.2
TLAS	≤ 0.2
VTKD	≤ 0.2
VSNS	≤ 0.2
LIGR	≤ 0.2
TNMH	≤ 0.2
PCAR	≤ 0.2
HCDS	≤ 0.2
TKVL	≤ 0.2
QEGH	≤ 0.2
TRFY	≤ 0.2
IMSG	≤ 0.2
FCSS	≤ 0.2
VLES	≤ 0.2
LVTI	≤ 0.2

Variant	one-hybrid fitness for binding NBS DNA
YPTL	≤ 0.2
SAQW	≤ 0.2
RYME	≤ 0.2
QTCH	0.319
ALGR	≤ 0.2
LTAQ	≤ 0.2
VVTA	≤ 0.2
PVHP	≤ 0.2
HKGM	≤ 0.2
ITSD	≤ 0.2
QYCS	0.301
TAGL	≤ 0.2
PWKG	≤ 0.2
QARR	0.973
QCAK	≤ 0.2
IKIS	≤ 0.2
SDKN	≤ 0.2
NGLS	≤ 0.2
LMHL	≤ 0.2
PSRR	≤ 0.2
LEVR	≤ 0.2
HFYS	≤ 0.2
FSTW	≤ 0.2
RYCE	≤ 0.2

Variant	one-hybrid fitness for binding NBS DNA
LTLR	≤ 0.2
VHNV	≤ 0.2
QQGN	≤ 0.2
INGR	≤ 0.2
DQFS	≤ 0.2
RIVS	≤ 0.2
CFHR	≤ 0.2
CSTS	≤ 0.2
TGDS	≤ 0.2
EQRK	≤ 0.2
KLTY	≤ 0.2
IRKL	≤ 0.2
KNSG	≤ 0.2
RCEW	≤ 0.2
IHQR	≤ 0.2
DVSW	≤ 0.2
YSSY	≤ 0.2
IQAR	≤ 0.2
GFFS	≤ 0.2
IEYS	≤ 0.2
FRSS	≤ 0.2
HTQG	≤ 0.2
CPEM	≤ 0.2
RTCN	≤ 0.2

Variant	one-hybrid fitness for binding NBS DNA
PKWV	≤ 0.2
ELQR	≤ 0.2
VAHR	≤ 0.2
PHNI	≤ 0.2
VRCD	≤ 0.2
HYFT	≤ 0.2
HMRC	≤ 0.2
LQGF	≤ 0.2
RTKA	0.479
PNNG	≤ 0.2
LSTW	≤ 0.2
QTGR	0.813
MVTE	≤ 0.2
PWHD	≤ 0.2
HYHF	≤ 0.2
AYFG	≤ 0.2
PGDR	≤ 0.2
YSNA	≤ 0.2
YRNE	≤ 0.2
LKHI	≤ 0.2
SCDF	≤ 0.2
EPFI	≤ 0.2
QHRP	0.201
MCFG	≤ 0.2

Variant	one-hybrid fitness for binding NBS DNA
YALL	≤ 0.2
NGTN	≤ 0.2
YPIF	≤ 0.2
NPPI	≤ 0.2
PLRD	≤ 0.2
ILTH	≤ 0.2
RHDA	≤ 0.2
ADKP	≤ 0.2
DEGG	≤ 0.2
RLDT	≤ 0.2
LSAV	≤ 0.2
SFRS	≤ 0.2
LCCR	≤ 0.2
CFRF	≤ 0.2
SSQC	≤ 0.2
DWSY	≤ 0.2
TVYG	≤ 0.2
WIKW	≤ 0.2
GYQS	≤ 0.2
VLWE	≤ 0.2
EKNS	≤ 0.2
EVGP	≤ 0.2
SKES	≤ 0.2
EAGR	≤ 0.2

Variant	one-hybrid fitness for binding NBS DNA
IVCR	≤ 0.2
RNDY	≤ 0.2
ANLM	≤ 0.2
YKEV	≤ 0.2
CRFA	≤ 0.2
CGYD	≤ 0.2
IPVF	≤ 0.2
CACG	≤ 0.2
LPTY	≤ 0.2
QPIR	≤ 0.2
EYAI	≤ 0.2
QWMV	≤ 0.2
PKWN	≤ 0.2
RMWY	≤ 0.2
TPDF	≤ 0.2
HWCH	≤ 0.2
SGPF	≤ 0.2
PMHG	≤ 0.2
HHQY	≤ 0.2
ADLR	≤ 0.2
DLTS	≤ 0.2
RPPQ	≤ 0.2
LLRG	≤ 0.2
HAQT	≤ 0.2

Variant	one-hybrid fitness for binding NBS DNA
TSWT	≤ 0.2
RSAD	≤ 0.2
QHHV	≤ 0.2
FAVT	≤ 0.2
LPAR	≤ 0.2
AAEG	≤ 0.2
QMHK	≤ 0.2
VPGM	≤ 0.2
PIDS	≤ 0.2
QSGF	≤ 0.2
VGLD	≤ 0.2
PAWH	≤ 0.2
WRPI	≤ 0.2
LMIW	≤ 0.2
NCFV	≤ 0.2
MVKC	≤ 0.2
PIMC	≤ 0.2
PKRI	≤ 0.2
PFMF	≤ 0.2
HSEN	≤ 0.2
PHLW	≤ 0.2
INSR	≤ 0.2
NKDR	≤ 0.2
KNML	≤ 0.2

Variant	one-hybrid fitness for binding NBS DNA
NDNF	≤ 0.2
WPQR	≤ 0.2
RSFP	≤ 0.2
VVTF	≤ 0.2
VWFR	≤ 0.2
QWHF	≤ 0.2
PIHT	≤ 0.2
PPVI	≤ 0.2
LRCE	≤ 0.2
PRFG	≤ 0.2
AYRN	≤ 0.2
DRHM	≤ 0.2
TPCS	≤ 0.2
RFET	≤ 0.2
HNKV	≤ 0.2
YPVT	≤ 0.2
KYTW	≤ 0.2
LASR	≤ 0.2
SQTG	≤ 0.2
RHQC	≤ 0.2
WALI	≤ 0.2
PRRV	≤ 0.2
YKKI	≤ 0.2
GMHR	≤ 0.2

Variant	one-hybrid fitness for binding NBS DNA
ASTQ	≤ 0.2
CFYR	0.286
RMVE	≤ 0.2
ATDF	≤ 0.2
LAPI	≤ 0.2
SRCY	≤ 0.2
TVPC	≤ 0.2
PWVI	≤ 0.2
STRG	≤ 0.2
RWYN	≤ 0.2
DDSF	≤ 0.2
GIDR	≤ 0.2
WCYS	≤ 0.2
PMAS	≤ 0.2
PIAM	≤ 0.2
PMAG	≤ 0.2
ADQS	≤ 0.2
GCMR	≤ 0.2
